Some of the results follow.
system: PF3D7_0420300 AP2 domain 1 (GST-tagged); experiment: gcPBM binding intensity (ln(normalized median fluorescence intensity)); higher = stronger DNA binding
In short: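 An Agilent 4 × 180k array carrying primer-extended double-stranded 36-bp intergenic genomic probes and negative controls received GST-tagged P. falciparum DNA-binding domains expressed in E. coli, about 25 μg on average, for 1 h. The binding buffer contained 1× PBS, 1% milk, 0.2 mg/ml BSA, 0.5% salmon testes DNA and 0.03% Triton X-100. Binding intensity is the top Masliner-normalised natural-log median intensity across replicate spots of either probe orientation, read after Alexa488 anti-GST antibody staining and a 488 nm scan.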

Sequence	gcPBM binding intensity (ln)
AAAGAAAATAGGTGTACACATAATAAATACAGCTAT [CACACA_site5917]	9.77
AAAAAAAAAAAAACTAGTACATATATATAGTATGAA [XGTACX_site6279]	9.21
AAAACAAATAAGTAAACACACATATATAATATATAT [CACACA_site2586]	9.64
TTTATTTTTTATATATCACTTAAAAAAAAAAAAAAA [CACACA_negctrl_site249]	8.41
GAATATAAAAGGAACGGTACAGAAAAAAAAAAAAAA [XGTACX_site3917]	9.33
ATTTATATTTTATATACACACATGAACTTATATGGA [CACACA_site3167]	9.49
AATATAGTCTCACATACACACATATATATTTATATA [CACACA_site2503]	9.58
CTTTTTTTTTTATGCACACACAATTATACATTCCTT [CACACA_site3877]	9.83
ATAACCTAATAATACACACACATGAATATATATAAT [CACACA_site4689]	10
ATGTAATATATTATATGTACATATTTTTATGTAGAT [XGTACX_site5945]	9.2
TTTTTAATTTAAAAAAATAATATTTTATATTCCGAA [CACACA_negctrl_site108]	8.52
GTAAGCATCAAAAAAGGTACAGAAATTATAAATAAA [XGTACX_site6708]	9.28
TATTTTTTATTTTTTTGTACATATTTGATAATTAAT [XGTACX_site316]	9.37
AAATATTTATATATATGTACACATATAATATTTTTA [XGTACX_site2338]	9.08
ATATATGTTATTATTTGTACACACACATATATATCC [XGTACX_site7657]	9.92
ATTTCTAATATTTTTGCACACTAAACAATAAATTTC [CACACA_site3943]	9.34
GAAAATTTATTTTTGGTGCATGTATTTATTTATTTT	9.38
AAAAAAAAAAGAAACACACACATATATATATATAAT [CACACA_site5052]	9.85
TATATATATTCTTTAAAACACACGTAAAGAAGAATT [CACACA_site2718]	9.34
CATTTATTTATATACACACACACAAAAAAAAAAAAA [CACACA_site7279]	9.84
TGCTATATTATTATCGCACACCGTTGATTCTAAATA [CACACA_site1207]	9.28
ATAAGTGTATAAAAATGTACGTGTATAAAAATATGT [XGTACX_site8235]	9.65
AGTAATATAATATAAGCACACGTGTATTTATTTAGT [CACACA_site4246]	9.54

Sequence	gcPBM binding intensity (ln)
TACAAAATAAAAATAATTCTTTCAAAAAATAATAAA [XGTACX_negctrl_site368]	8.91
TGGGAGCACAGACACACACACACACCCATATATATA [CACACA_site335]	10.1
GTATAAAAGTAATGTAGTACTTATATATTTTTATTT [XGTACX_site8975]	9.1
TCCTTATATTGGCACACACACACAATAAAATGAAAA [CACACA_site4715]	9.97
GGTTGCTTCAGTGAATGTACATAGTGGTAAACAAGC [XGTACX_site166]	9.29
TGCACATTTATGTAACGTACAAAATATAATATGTTA [XGTACX_site8255]	9.07
GTATATAATATTAGTGCACACACAAAAATGTACTAA [CACACA_site8112]	9.61
GAAATAATAAATTAAAAATCGTTTATAACATTTAAC [CACACA_negctrl_site425]	9.02
ATTTTCTTTCTATGCACACGCACGTATTTGCACCCA [CACACA_site3350]	9.36
AGTTTAATATAAAATACACACTACTCTTATAAATAT [CACACA_site6803]	9.23
CTTTTTTTTTGATGTTGTACATATATATTATATAAT [XGTACX_site1321]	9.36
TAAGGACTAATATTTGAACACACATATAATATATAC [CACACA_site9325]	9.51
TATATATTTGTTCACACACACACAAAAAAAAAAAAA [CACACA_site2475]	9.87
CATATATATATATATATATATATATTTATTTATTTA [TGCATGCA_negctrl_site165]	8.8
GTCATCAAGTATTAAGTGCATTAAAAATAAAATATA	9.05
TTAAAAGAAAATAACACACACAAAAAAAAAAAAAAA [CACACA_site2117]	9.49
AACATAAGTAAGAATACATGCGGAAATTATATAGAA [TGCATGCA_site112]	9.53
TATAAATTTAAAATGACACACACTAAAGTTATTTAA [CACACA_site6700]	9.3
TAAATATTATAAATGATACACACTTAAAATACTCAC [CACACA_site2710]	9.59
TCCCTTAAAATGATATGTACATAAAAATAAAAAAAA [XGTACX_site836]	9.05
ACTAACATATATTCAACACACATATACCTTCAACCC [CACACA_site3011]	9.72
TATATATATATATACACACACACATATATATATATA [CACACA_site774]	9.72

Reference: the supplement of paper PMC11417369
